# Source: PubChem BioAssay AID1956 (SRMLSC, 2009)
# The other results are listed elsewhere or left out. These are further read-outs of the screen, such as a control signal, another cell line or another target. No call is given for them.
# Assay: enhancers of HSV replication in host cells, fold increase, host cell viability (AID 1956); further: tested in PC3 cells
# Settings: HSV replication augmentation in cells; fold increase: measured here: primary screen fold increase 10 uM, at 10 µM, stronger effect = higher value; viability: measured here: host cell viability series, at 25 µM, stronger effect = lower value
Compound,fold increase,viability
N#Cc1c(C(F)(F)F)cc(-c2ccccc2)nc1SCc1nc(N)nc(N2CCOCC2)n1,1.8,83.2%
CC(=O)/C(C#N)=C1\NC(=O)C(Cc2ccccc2C)S1 (stereo not given),1.32,–
COc1ccccc1N1C(=N)S/C(=C\c2ccc(-c3ccccc3C(=O)O)o2)C1=O,1.37,–
CN(C)c1ccc(C2N(c3ccc(Cl)cc3)C(=O)C3CCCN32)cc1 (stereo not given),1.32,103%
Cc1cc(O)c(C(C)C)cc1N=Cc1ccccc1O,1.61,74.6%
N#C/C(=C/c1ccc(-c2cc(C(=O)O)cc(C(=O)O)c2)o1)c1nc2ccccc2s1,2.08,–
COC(=O)c1cccnc1N1CCN(c2ccccc2F)CC1,1.37,96%
COc1ccc(N=Cc2c(O)n(-c3cccc(C)n3)c(=O)c3ccccc23)c(OC)c1,3.65,96.6%
O=C1c2cccc3c([N+](=O)[O-])ccc(c23)C(=O)N1CC1CCCO1 (stereo not given),3.52,69.3%
COc1cccc(N2CCN(Cc3nc4scc(-c5ccccc5)c4c(=O)[nH]3)CC2)c1,1.75,55.1%
CCOC(=O)C(NC(=O)c1cccc(Cl)c1)(Nc1sc2c(c1C(N)=O)CCC2)C(F)(F)F (stereo not given),1.42,97.6%
CCCNC(=O)Cn1cnc2sc(C(=O)Nc3ccc4c(c3)OCO4)c(C)c2c1=O,1.32,–
N#Cc1ccc(-c2ccc(Cl)cc2)nc1SCC(=O)c1cccc(Cl)c1,1.57,48.4%
CCn1c(/C=C/N(C)c2ccccc2)[n+](CC)c2ccc(Cl)cc21,1.36,33%
CCOC(=O)c1cnc2c(OC)cccc2c1N1CCN(c2ccc(OC)cc2)CC1,1.15,–
O=C(CN(Cc1cccs1)C(=O)CNS(=O)(=O)c1ccc(F)cc1)NCC1CCCO1 (stereo not given),1.64,92.7%
CN(/C=C/C(=C/C=[N+](C)c1ccccc1)OCCCS(=O)(=O)[O-])c1ccccc1,1.96,105%
CN(C)c1ccc(/C=C/C(O)=C2/C(=O)N(C)C3(C)CC2c2ccccc2O3)cc1 (stereo not given),1.33,–
CN1/C(=C\C=C(C#N)C#N)C(C)(C)c2ccccc21,7.58,101%
CC(C)=CCC/C(C)=C/C=N/NC(=O)c1ccccc1[N+](=O)[O-],1.33,94.5%
Cn1nc(-c2ccccc2)c2nc3ccccc3nc21,1.94,98%
N#CC1=C(N)SC(N)=C(C#N)C1c1c(Cl)cccc1Cl,1.41,104%
Cc1cccc(NC(=O)CN2C(=O)N/C(=C/c3ccc(C)o3)C2=O)c1,1.43,94.1%
N#C/C(=C\c1ccc(Sc2ccc(Cl)cc2)o1)c1nc2ccccc2[nH]1,1.68,81.2%

Compound,fold increase,viability
C=CCn1c(=O)/c(=C/c2cc(OC)c(OC)c(OC)c2)s/c1=C(/C#N)c1nc2ccccc2n1C,4.6,72.9%
Oc1ccc2ccc3cccc[n+]3c2c1,2.92,96.2%
COC(=O)C(NC(C)=O)(Nc1ccc(C)cn1)C(F)(F)F (stereo not given),1.38,92.4%
O=C(c1ccccc1)c1ccc(O)cc1O,1.83,103%
NS(=O)(=O)c1ccc(N=Nc2c[nH]c(=O)c(O)c2)cc1,1.53,90.8%
COc1ccc(S(=O)(=O)/N=C2/NC(=O)/C(=C\c3ccco3)S2)cc1,1.33,93.3%
CCOC(=O)C(C(=O)OCC)c1cc(Br)c2noc3c2c1C(=O)c1ccccc1-3,2.98,65.1%
CCOC(=O)c1cnc2c(F)ccc(F)c2c1Sc1ccccc1,1.36,89.6%
C=CCN1C(=O)C(CC(=O)O)SC1=Nc1ccc(C)cc1 (stereo not given),1.35,97%
O=C(/C=C/c1cn(CC(O)CN2CCOCC2)c2ccccc12)c1cccs1 (stereo not given),1.72,90.1%
COC(=O)c1cc2c(C)cc3ccc(C)cn3c-2c1C(=O)OC,1.35,91.5%
CCC1=NN2C(=N)/C(=C\c3ccc(SCc4ccco4)o3)C(=O)N=C2S1,1.48,103%
NCCNc1ccc([N+](=O)[O-])cc1,1.37,100%
CCN(CC)c1ccc(/C=C(\C#N)C(=O)NCc2ccco2)cc1,2.55,93.4%
CCCN1C(=O)S/C(=C\c2ccc(N3CCOCC3)cc2C)C1=O,2.14,–
O=C(Nc1nnc(COc2ccccc2F)s1)Nc1ccccc1F,1.39,99.6%
CC(=O)/C(N=Nc1cc(C)ccc1O)=C(\C)O,1.38,93.6%
C=C1CCN([C@@H](C)C(=O)NCCCCCC)S(=O)(=O)c2ccccc21,1.34,99.2%
O=C(N/N=C/c1c(O)n(-c2ccc(Cl)cn2)c(=O)c2ccccc12)c1ccncc1,1.91,96.4%
COc1ccccc1N=Cc1c(C)c(C#N)c2[nH]c3ccccc3n2c1=O,1.34,102%
Cc1ccc(N2C(=O)[C@@H]3[C@H](C2=O)C2c4ccccc4C=CN2[C@@H]3C(=O)c2ccco2)cc1 (stereo not given in full),1.35,–
CC(=O)/C(C#N)=C1\NC(=O)C(Cc2ccc(F)cc2)S1 (stereo not given),1.39,96.3%
Nc1c(C(=O)c2ccc(Cl)cc2)sc2nsc(SCCN3CCOCC3)c12,2.98,97.3%
CCOC(=O)c1c(-c2ccccc2)csc1NC(=O)/C(C#N)=C/c1ccc(O)c(OC)c1,5.9,90.3%

Compound,fold increase,viability
N#Cc1cccc(NC(=O)CSc2ccc3c4c(cccc24)C(=O)c2ccccc2-3)c1,2.09,47.8%
Cc1ccc(-c2cccc(C(=O)NCc3ccccc3)n2)c2ccccc12,1.42,98%
C=CCOC(=O)C1=C(C)NC(SCC(=O)Nc2nccs2)=C(C#N)C1c1ccc(Cl)cc1 (stereo not given),1.58,–
Cc1c(C(=O)Nc2ccc(F)cc2)c2ccccn2c1CCc1ccncc1,1.45,–
Cc1nnc(-c2cccc(Br)c2)c2cn(-c3ccccc3)nc12,1.94,87.8%
C=CCN1C(=O)C2(c3ccccc31)C1CCCC=C1C(C#N)=C(N)C2(C#N)C#N (stereo not given),1.05,–
Cc1ccc(S(=O)(=O)c2c(N)n(Cc3ccco3)c3nc4ccccc4nc23)cc1,2.21,79.7%
CN(C)C(=O)CSc1nnc(CCN)o1,1.42,91.2%
CCCN1C(=O)/C(=C/c2ccc(N3CCCC3)c(C)c2)NC1=S,2.54,87.1%
Cc1cc(O)c(/C=N/c2ccccn2)c(=O)o1,2.39,97.5%
CC(C)(C)c1cc(-c2n[nH]c(=S)n2-c2ccccc2F)n[nH]1,1.35,95.4%
CCOc1cc(/C=C(\C#N)c2nc(-c3cccs3)c(NC(C)=O)s2)ccc1O,8.14,–
COc1ccccc1C(=O)Oc1ccc2c(c1)O/C(=C\c1ccncc1)C2=O,1.53,89.4%
O=C(Cc1ccc(Cl)cc1)N/N=C/c1cccs1,1.34,96.9%
Cc1ccc(S(=O)(=O)NC(C(=O)Oc2ccc3c(C(F)(F)F)cc(=O)oc3c2)c2ccccc2)cc1 (stereo not given),1.62,98.5%
COc1cccc(-c2nc(NCc3ccco3)c3ccccc3n2)c1O,1.03,–
CCOc1ccc(C(=O)N/N=C(\c2ccccc2)c2ccccn2)cc1,1.07,–
Oc1ccccc1N=Cc1c(O)ccc2oc3c(c12)CCCC3,1.42,93.7%
CS(=O)(=O)N(Cc1ccccc1)c1ccc(C(=O)Nc2cccnc2)cc1,1.37,98.6%
OCCCn1c(-c2ccccc2)nc(=S)c2c1CCCC2,1.44,97.4%
O=C1/C(=C/c2cccs2)N=C(c2cccs2)N1Nc1ccccc1,1.34,–
CC1c2ccsc2CCN1S(=O)(=O)c1cccs1 (stereo not given),1.32,–
O=C(NC(=S)Nc1ccccc1)c1cc(-c2ccccc2)nc2ccccc12,1.28,–
CC(C)(C)c1ccc(Oc2ccc(N)cn2)cc1,1.93,61.6%

Compound,fold increase,viability
CN=c1scc(-c2ccccc2F)n1/N=C/c1ccc[nH]1,1.35,–
O=C(/C=C/c1ccc2c(c1)OCO2)c1ccc(F)cc1,1.57,91.6%
COc1ccc2c(c1)c1nc3ccccc3nc1n2CC(=O)OC(C)C,1.52,71.8%
COc1cccc(-n2c(C)c3c(OC)cccc(=O)c3c2C)c1,1.36,97.4%
Cc1ccc(C=Nc2cccnc2N)cc1,1.94,105%
Cc1ccc(-c2cc(-c3ccc(F)cc3)c(C#N)c(N)n2)o1,1.41,–
O=C(O)C(Cc1ccc(O)cc1)N1C(=O)C2CCCCC2C1=O (stereo not given),1.39,94.9%
CCOC(=O)N1CCN(C(c2cccnc2)c2ccc3cccnc3c2O)CC1 (stereo not given),1.01,–
CC(C)(C)c1ccc(Cn2c(=N)n(CC(O)c3ccco3)c3ccccc32)cc1 (stereo not given),1.49,2.51%
CCCOC(=O)c1ccc(NC(=O)/C=C/c2cccs2)cc1,1.51,96.7%
CN(C)Cc1c(O)ccc2c1O/C(=C\C=C\c1ccccc1)C2=O,2.78,52.9%
O=[N+]([O-])c1ccc(-c2ccc(/C=N/Nc3nc(N4CCCCC4)nc(N4CCCCC4)n3)o2)cc1,1.66,54.9%
CCOC(=O)c1cnc(COc2ccc(OC)cc2)[nH]c1=O,1.36,93.9%
O=C(NC1CC1)C1CCN(C2CCN(C(=O)c3ccc4cccc(F)c4n3)CC2)CC1,1.36,93.3%
CC(=O)N(C(C)=O)N1C(=O)c2cccc3c(N4CCOCC4)ccc(c23)C1=O,1.93,103%
CC(C)NC(=O)/C(C#N)=C/c1ccc(N(C)C)o1,1.59,92.5%
COC(=O)C/C=N/N=C1/NC(=O)/C(=C/C(=O)O)S1,1.4,112%
CC(=O)Nc1sc(/C(C#N)=C/c2ccc(Cl)c(Cl)c2)nc1-c1ccc(C)cc1,6.5,96.8%
COc1cc(/C=C(\C#N)c2nc3ccccc3o2)ccc1O,8.41,85.6%
CCOc1cccc(=O)c2c(C)n(CC3CCCO3)c(C)c12 (stereo not given),1.39,97.8%
COc1ccccc1NC(=O)c1c(NC(=O)CCC(=O)O)sc2c1CCCCC2,1.42,99.9%
Cc1ccc(S(=O)(=O)C(C#N)c2nc3ccccc3nc2N2CCCC2)cc1 (stereo not given),1.54,92.8%
COc1cccc(-c2nc3n(n2)C(c2ccccc2Cl)C(C(N)=O)=C(C)N3)c1 (stereo not given),1.44,91%
